The text below walks through data of ChEMBL document CHEMBL1201862, “PubChem BioAssay data set” (2004).

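Protocol summary: plate cells (96-well), add compound at 5 concentrations, incubate 48 h, interpolate endpoints linearly. Abbreviation: GI50, concentration required for 50% inhibition of growth.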 Calls of active or inactive are those of the source. Rule as the data show it: active = GI50 up to about 1.1 µM and inactive = higher.

The test system of this assay is NCI-H322M. Nature of the assay: NCI anticancer screen, dose series, 48 h.
As for `N[C@H]1CCN(c2c(F)cc3c(=O)c(C(=O)O)cn4c3c2Oc2cc3c(ccc5ccccc53)cc2-4)C1`, the GI50 is inactive: 2.06 µM. With `Cc1ccccc1N/C(=C(/C(Cl)=C(Cl)Cl)[N+](=O)[O-])n1nnc2ccccc21` the figure was inactive: 21.6 µM. With `CCN(CCCl)c1cc(CN(C)C)cc(NC(=O)c2ccc(C(=O)Nc3cc(CN(C)C)cc(N(CC)CCCl)c3)cc2)c1` the figure was active: 0.33 µM; with `CC(=O)NC1=C[C@@H]([C@H]2COC(C)(C)O2)OC1=O`, inactive: > 100 µM.

As to `COC(=O)C1=C(O)C(C(=O)OC)[C@]2(O)[C@H](C(=O)OC)[C@H]1C[C@@H](c1ccc(OC)cc1)[C@H]2C(=O)OC` (stereo partly specified), the GI50 is inactive: 26.5 µM. The same measure for `Cc1ccc(S(=O)(=O)NNC(=O)c2cc(C)c(C)cc2N)cc1`: inactive: > 100 µM; for `COc1c(Sc2ccccc2)cc(Sc2ccccc2)c2cccnc12`: inactive: 48.6 µM; for `Cc1nc(C(N)=S)sc1/C(CC(=O)C(=O)Nc1cccc2ccc(O)cc12)=N\NC(=O)c1ccncc1`: inactive: > 100 µM. The same measure for `CC(C)=CCC/C(C)=C/C=C/C(C)=C/C1C[C@@]2(C(O)O1)[C@H](CCCO)/C(=C(/C)C=O)CC[C@]2(C)O` (stereo partly specified): inactive: 12.5 µM; for `COc1cc2c(cc1OC)[C@@](C)(C(O)C(O)C(C)(C)O)NCC2` (stereo partly specified): inactive: > 100 µM; for `COc1nc(-c2cn(S(=O)(=O)c3ccc(C)cc3)c3ccc(Br)cc23)cc(C(F)(F)F)c1C#N`: inactive: > 100 µM. The same measure for `COC(=O)N/N=c1\cc(C(=O)Nc2ccc(C)c(C)c2)oc2cc(O)ccc12`: inactive: > 100 µM; for `N/C(=N\O)N/N=C/c1cccs1`: inactive: 36.4 µM; for `O=C(O)c1cnccc1-c1cc(=O)[nH]n1-c1ccccc1`: inactive: > 96.2 µM. For the compound `O=C(O)Cc1ccc(N2N=C(c3ccccc3)CC2=O)cc1`, the GI50 was inactive: > 100 µM. With `CC1CNC(c2cccc(OCc3ccc(COc4cccc(C5=NC(C)CN5)c4)cc3)c2)=N1` (stereo unspecified) the figure was inactive: 73.3 µM. On to `CC1(C)[C@H]2CC[C@](C)(C2)[C@]1(S)Cc1ccccn1`, for which the GI50 is inactive: > 100 µM. The same measure for `O=c1ccc2cc3ccc4cccc5ccc(c2o1)c3c45`: inactive: > 100 µM; for `O=C(O)c1ccc2c(c1)C(=O)N(c1ccc(S(=O)(=O)c3ccc(N4C(=O)c5ccc(C(=O)O)cc5C4=O)cc3)cc1)C2=O`: inactive: > 100 µM.

Turning to `COc1ccc(/N=N/C(=N\c2ccc(Cl)cc2)c2ccc(N(CCC#N)CCC#N)cc2)cc1`, the GI50 is inactive: > 100 µM. The same measure for `CN1C(=O)CN2C(Cl)(Cl)C2(c2ccccc2F)c2cc([N+](=O)[O-])ccc21` (stereo unspecified): inactive: > 100 µM; for `O=C(N/N=C/c1ccc([N+](=O)[O-])cc1)Nc1ccc(C(=O)O)cc1`: inactive: 34.1 µM. The same measure for `COc1ccc(C(C2=C(O)CC(C)OC2=O)C2=C(O)CC(C)OC2=O)cc1` (stereo unspecified): inactive: > 100 µM; for `COc1ccc(/C=C2\CCC(C)(CN(C)C)C2=O)cc1OC` (stereo unspecified): inactive: > 100 µM. With `S=C1CSc2c(ccc3ccccc23)N1` the figure was inactive: > 100 µM; with `CSc1nc(Cl)c2c(n1)Sc1nc3cc4c(cc3n1C2O)OCO4` (stereo unspecified), inactive: 4.75 µM.

As to `NC(Cc1ccc(OCc2ccccc2)cc1)C(=O)NC(Cc1ccccc1)C(=O)Oc1c(Cl)c(Cl)c(Cl)c(Cl)c1Cl` (stereo unspecified), the GI50 was inactive: 18.6 µM. With `CC(CSC(=N)N)C(N)=O` (stereo unspecified) the figure was inactive: > 100 µM; with `CCOP1(=O)CC(C)=C(Cl)C(O)C1` (stereo unspecified), inactive: > 100 µM; with `COc1ccc(C2SCC(=O)N2c2ccc(-n3c(-c4ccccc4)nc4ccccc4c3=O)cc2)cc1` (stereo unspecified), inactive: > 100 µM. With `COc1c2c(cc3nc4ccccc4nc13)CCC(C(C)(C)O)C2` (stereo unspecified) the figure was inactive: > 100 µM; with `O=C(Nc1nnc(-c2c(Cl)c(Cl)c(Cl)c(Cl)c2-c2nc3cc(C(=O)c4ccccc4)ccc3[nH]2)o1)c1ccc(Cl)cc1`, inactive: 44.2 µM.

With `COC(=O)/C(C#N)=C1\CCC(O)N1` (stereo unspecified), the GI50 was inactive: > 100 µM. For `COc1ccc(/C=N/NC(=O)NCCNCCO)cc1`, the GI50 is inactive: > 100 µM. The same measure for `CC(C)(C)c1cc(O)c2c(c1O)C(=O)CCC2`: inactive: 66.1 µM; for `NCCSC(c1ccccc1)c1ccccc1`: inactive: 22.3 µM. `O=C1C(c2cnc3ccccc3n2)=C(O)c2ccccc21`: the GI50 is inactive: > 87.9 µM. With `CC(C)(C)c1cc(OCc2nnc3sc(-c4ccc(Cl)cc4)nn23)c(Cl)cc1OCc1nnc2sc(-c3ccc(Cl)cc3)nn12` the figure was inactive: 4.51 µM; with `CN(C)C(=S)SCc1ccccc1`, inactive: > 100 µM.

As to `CC1(C)OC2C(CCP(=O)(O)O)OC(c3nc(C(N)=O)cs3)C2O1` (stereo unspecified), the GI50 was inactive: > 100 µM. Consider `CCOC(=O)Nc1cc2c(c(N)n1)N=C(c1ccc(OC)cc1)CN2`, for which the GI50 was active: 0.117 µM.

As to `CC(C)C(CC(=O)OCC(CO)OC(=O)CC(C(C)C)C(C)C)C(C)C` (stereo unspecified), the GI50 was inactive: 14.7 µM. The same measure for `Cc1c(-c2ccccc2)nn2cc(-c3ccccc3)nnc12`: inactive: 17.7 µM; for `CCOP(=O)(OCC)/C(=C/c1ccccc1)CC(C)=O`: inactive: > 100 µM.

Take `NCCCC[C@H](N)C(=O)Nc1ccc(-c2nc3ccccc3s2)cc1`: the GI50 was inactive: 22.8 µM. For the compound `COc1cc(/C=C2/CCCc3ccccc3C2=O)cc(OC)c1OC`, the GI50 was inactive: 24.4 µM. The same measure for `C=CCOC(=O)N1c2ccc(O)cc2[C@@]23O[C@@]24[C@@H]1C#C/C=C\C#C[C@]3(O)C(OC)(OC)C[C@@H]4C`: inactive: 48.3 µM; for `Clc1ccc(CNc2nc(Cl)c3nc[nH]c3n2)cc1Cl`: inactive: 22.9 µM. The same measure for `Cc1cc(C)nc(NS(=O)(=O)c2ccc(Nc3c4ccccc4nc4ccc(C(=O)Nc5ccc(S(N)(=O)=O)cc5)cc34)cc2)n1`: inactive: > 100 µM. On to `CN(/N=C/c1ccnc2ccccc12)c1ccc(Cl)cc1[N+](=O)[O-]`, for which the GI50 is inactive: > 100 µM.

Turning to `Cc1sc2[nH]c(=O)oc(=O)c2c1C`, the GI50 is inactive: > 100 µM. The same measure for `CN1C(=O)C2CCCC(=O)N2c2cccnc21` (stereo unspecified): inactive: > 100 µM; for `CC(=O)Oc1cc(-c2oc3cc(OC(C)=O)c(C4OC(CO)C(O)C(O)C4O)c(OC(C)=O)c3c(=O)c2O)c(OC(C)=O)cc1O` (stereo unspecified): inactive: 83.4 µM.

`C[n+]1cccc2c(=O)c3ccccc3oc21`: the GI50 was inactive: > 100 µM. The same measure for `O=[N+]([O-])c1cc(Cl)cc2cc(Br)cnc12`: inactive: > 31.6 µM. The same measure for `COc1ccc(C(=O)c2[nH]c(Nc3ccc(Cl)cc3)c(C(=S)Nc3ccccc3)c2N)cc1`: inactive: > 100 µM. The same measure for `CC1=C(C(=O)Nc2ccccc2)C(c2cc(Cl)cc(Cl)c2)C(C(=O)Nc2ccccc2)=C(C)N1`: inactive: 12.5 µM; for `Cn1c2c(c3ccccc31)CC1c3c(c4ccccc4n3C)CC21` (stereo unspecified): inactive: > 100 µM. As to `COc1ccc(-c2nc(SCC(=O)N/N=C/c3ccc(N(C)C)cc3)[nH]c2-c2ccc(OC)cc2)cc1`, the GI50 was inactive: > 100 µM.

For `O=C1C2C3CC(C4C5C=CC(C5)C34)C2C2C3CC(C12)C1C2C=CC(C2)C31` (stereo unspecified), the GI50 is inactive: > 100 µM. With `CC(=O)N(C)OC(=O)CC(=O)c1ccccc1` the figure was inactive: > 100 µM. As for `C[C@H](NS(=O)(=O)c1ccc(NC(=O)c2ccccc2)cc1)C(=O)O`, the GI50 was inactive: > 100 µM. The same measure for `c1ccc([P+](c2ccccc2)(c2ccccc2)C2Sc3ccccc3S2)cc1`: inactive: 34.6 µM. With `Cc1nnc2n1N=C(CC(=O)c1ccc(O)cc1O)CN2N` the figure was inactive: > 100 µM; with `COc1cccc(C(=O)Nc2c3ccccc3nc3ccccc23)c1OC`, inactive: > 100 µM. The same measure for `[N-]=[N+]=CC(=O)OC1Cc2ccccc2C1`: inactive: 98.6 µM; for `COc1ccc(C)cc1NC(=S)C#N`: inactive: > 100 µM. `CCOC(=N)CC(=O)Nc1cccc(Cl)c1`: the GI50 was inactive: > 100 µM. With `CC(=O)N(CC(=O)C(=O)NNc1ccoc1)c1ccc(Cl)cc1` the figure was inactive: > 100 µM; with `CCC(C)C(NC(=O)c1c2ccccc2nc2ccccc12)C(=O)O` (stereo unspecified), inactive: > 100 µM. With `[O-][n+]1c2cc3c(cc2[n+]([O-])c2c(O)cccc21)CN(CCN1CCOCC1)C3` the figure was inactive: 36 µM; with `C1CSCC2(COC2)CSCCSCC2(COC2)CS1`, inactive: > 100 µM; with `ClCCc1ccccc1CC1=NCCc2ccccc21`, inactive: > 100 µM.

As to `Cc1n[nH]c(=O)n1/N=C\CC/C=N\n1c(C)n[nH]c1=O`, the GI50 was inactive: > 100 µM. The same measure for `Cc1nc2c(n1Cc1ccc(F)cc1)C(=O)c1ccccc1C2=O`: inactive: 40.5 µM; for `C=C(C)C1Cc2c(c3ccccc3n(C)c2=O)O1` (stereo unspecified): inactive: > 100 µM. On to `CCN(CC)CCC(=O)OC1C(C)=CC(C)C(=O)CC(C(C)CC2CCC(O)C(OC)C2)OC(=O)C2CCCCN2C(=O)C(=O)[C@@]2(O)OC(CCC2C)CC(OC)\C(C)=C/C=C/C=C/C(C)CC(C)C(=O)C1OC` (stereo partly specified), for which the GI50 is inactive: 11.2 µM. With `O=S(=O)(O)c1cc(/N=N/c2cc(S(=O)(=O)O)c3ccccc3c2O)ccc1/C=C/c1ccc(/N=N/c2cc(S(=O)(=O)O)c3ccccc3c2O)cc1S(=O)(=O)O`, the GI50 was inactive: > 459 µM.

Turning to `[N-]=[N+]=NC12CC3C4CC5CC3C(C1)C(C5)C4C2`, the GI50 is inactive: > 100 µM.

Turning to `CC(C)[C@](O)(C(=O)OCC1=CCN2CC[C@@H](O)[C@@H]12)[C@H](C)O`, the GI50 was inactive: > 375 µM. The same measure for `CCCCCCCCCCCC[C@@H](O)[C@H]1CC[C@H]([C@H](O)CCCC[C@H](O)CCCCC[C@@H](O)CC2=C[C@H](C)OC2=O)O1`: inactive: 5.15 µM.
